Biological target: T1, MICA (CHO-K1-MICA细胞表达) (Homo sapiens (Human), UniProt Q29983 24-383)
T1 construct: also called MICA蛋白
T1 sequence: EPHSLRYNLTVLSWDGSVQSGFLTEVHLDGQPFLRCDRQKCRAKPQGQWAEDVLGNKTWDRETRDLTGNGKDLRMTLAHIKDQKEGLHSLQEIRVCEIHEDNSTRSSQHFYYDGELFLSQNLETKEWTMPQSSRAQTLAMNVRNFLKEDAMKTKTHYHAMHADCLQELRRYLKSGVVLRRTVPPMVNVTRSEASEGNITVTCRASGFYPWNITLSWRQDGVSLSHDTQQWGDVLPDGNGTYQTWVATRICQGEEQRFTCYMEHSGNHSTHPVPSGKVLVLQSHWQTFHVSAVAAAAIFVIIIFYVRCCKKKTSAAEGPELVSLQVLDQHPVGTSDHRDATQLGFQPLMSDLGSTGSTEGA
Assay: flow cytometry (legend of Fig. 9)

B1: NKG2D胞外区Fc融合蛋白(NKG2D-Fc) (Fc fusion)
chain: IWSAVFLNSLFNQEVQIPLTESYCGPCPKNWICYKNNCYQFFDESKNWYESQASCMSQNASLLKVYSKEDQDLLKLVKSYHWMGLVHIPTNGSWQWEDGSILSPNLLTIIEMQKGDCALYASSFKGYIENCSTPNTYICMQRTV[human IgG1 Fc not spelt out]
notes: expressed by the inventors
B1: binds.
